Among all 52,000 compounds or so, about 4,300 (8.3%) were called active. No stated cut-off is given here; in the data, active means survival mostly below about 52% (no sharp cut-off); inactive means mostly above about 56%. The list shows a part of the results.

The subject of the test is DeltatarO mutant. Description: growth inhibition of S. aureus wild type versus tarO mutant, primary screen, teichoic acid synthesis inhibitors, RN4220, OD600 (AID 463173). Conditions: OD600, 18 h, hits give low values, screened at 18.75 µg/mL (by protocol).
Regarding `CCOc1ccc(-n2c(SCC(=O)Nc3cccc(Cl)c3)nc3c(oc4ccccc43)c2=O)cc1`, the survival is inactive: 58%.
Next, `COc1ccc(C(=O)CC2(O)C(=O)Nc3c(C)cccc32)c(OC)c1OC` (stereo not drawn): inactive: 84%; `CCOc1ccc(-c2cnc(NCc3ccc(C(F)(F)F)cc3)n2C)cc1`: active: -3%; `Cn1c(=O)n(C/C=C/c2ccccc2)c(=O)c2c1nc1n2CCN1c1ccc(F)cc1`: inactive: 67%.
Next, `COc1ccc(S(=O)(=O)NCCc2sc(C)nc2C)cc1F`: inactive: 88%; `Cc1ccc2c(CC(=O)Nc3cccc(Cl)c3C)coc2c1`: inactive: 100%.
Next, `Cc1cccc(OCCCCn2c(C3CC(=O)N(c4ccccc4Cl)C3)nc3ccccc32)c1` (stereo not drawn): active: 10%; `O=C1c2ccccc2C(=O)N1CCc1c[nH]c2ccccc12`: inactive: 93%; `CCN(CC)c1cc(C)c2cc(NC(=O)c3ccc(OC)c(OC)c3)ccc2n1`: active: 35%.
As for `CCOC(=O)c1scc(-c2ccccc2)c1S(=O)(=O)N1CCN(c2ccc(Cl)cc2)CC1`, the survival is inactive: 88%.
As for `COc1cccc(N2CCN(C(=O)c3cnc4c(-c5ccccc5)c(C)nn4c3C)CC2)c1`, the survival was inactive: 87%.
For `COc1ccccc1C(=O)Nc1c(C(=O)Nc2cc(Cl)ccc2C)sc2nc(C)cc(C)c12` the value was inactive: 59%; for `O=C(Nc1ccccc1)c1cnc(N2CCCCC2)c2ccccc12`, inactive: 72%; for `COc1ccc(-c2cc(C)no2)cc1S(=O)(=O)N1CCN(c2cccc(C)c2)C(C)C1` (stereo not drawn), inactive: 77%.
Next, `Cc1ccccc1NC(=O)NCCc1c[nH]c2ccccc12`: inactive: 47%.
For `COc1cccc(CN(C(=O)COc2ccc(Cl)c(C)c2)C2CCS(=O)(=O)C2)c1` (stereo not drawn) the value was inactive: 71%.
Consider `O=C(Cn1c(=O)n(-c2ccccc2)c(=O)c2c3c(sc21)CCC3)c1ccc(F)cc1`, for which the survival was inactive: 63%.
For the compound `Cc1c(Cl)cccc1-n1ncc(C(=O)NCCN2CCN(C)CC2)c1C1CCN(C(=O)OC(C)(C)C)CC1`, the survival is inactive: 75%.
For `Cc1ccc(Sc2ccc(N3CCC(C(=O)Nc4cc(C)cc(C)c4)CC3)nn2)cc1` the value was inactive: 76%.
Consider `Cc1ccc(C2CC(=O)n3nc(-c4ccc(Cl)cc4)nc3S2)cc1` (stereo not drawn), for which the survival was inactive: 84%.
Next, `CCc1ccc(NC(=O)CSc2nc3c([nH]c4ccccc43)c(=O)n2-c2ccc(C)cc2)cc1`: inactive: 134%.
As for `Cc1ccc(CNC(=O)CCS(=O)(=O)c2cc3c4c(c2)CCN4C(=O)CC3)cc1`, the survival is inactive: 67%.
For `O=C(Nc1ccc(Cl)cc1)c1cnn2c1NC(c1ccccc1)=CC2c1ccccc1` (stereo not drawn) the value was inactive: 47%; for `COc1ccc(N2CCN(C(=O)c3cc4sccc4n3Cc3ccccc3)CC2)cc1`, inactive: 92%; for `O=C1CC(C(=O)O)C2(CCCC2)O1` (stereo not drawn), inactive: 119%.
For `CCc1ccccc1NC(=O)CN(C)S(=O)(=O)c1cccc2nsnc12` the value was inactive: 92%.
Next, `COc1ccc(-c2ccc(NS(=O)(=O)c3ccc(NC(C)=O)cc3)cc2)nn1`: inactive: 81%.
Regarding `COc1ccc(OC)c(NC(=O)c2c(NCc3cccs3)sc3c2CCCCC3)c1`, the survival is inactive: 67%.
Next, `CCN(CC)c1ccc(NC(=O)c2c(C)nn(-c3ccc(F)cc3)c2-n2cccc2)c(C)c1`: inactive: 99%; `COc1cccc2cc(C(=O)N3CCN(c4cc(C)ccc4C)CC3)c(=O)oc12`: inactive: 56%; `N#CCSc1nnc(CNc2ccc(Cl)cc2)n1-c1ccccc1`: inactive: 72%.
As for `Fc1ccccc1Nc1c2c(nc3ccccc13)CCC2`, the survival was inactive: 95%.
Next, `Cc1nc(SCC(=O)N2CCN(c3ccccc3)CC2)[nH]c(=O)c1C`: inactive: 80%.
Next, `Cc1[nH]c2ccc(C(=O)N3CCN(c4ccccc4F)CC3)cc2c1C`: inactive: 67%.
As to `CCN(CC)S(=O)(=O)c1ccc(NC(=O)Cn2ncc3c([nH]c4ccccc43)c2=O)cc1`, the survival is inactive: 85%.
Take `CC(Oc1ccccc1)C(=O)Nc1ccc(C(=O)OCc2cc(=O)n3nc(C(C)C)sc3n2)cc1` (stereo not drawn): the survival is inactive: 90%.
Next, `CCOc1ccc(/C=C/c2nc(C#N)c(N3CCN(CC)CC3)o2)cc1`: inactive: 70%.
Next, `COc1ccc(-c2noc(N3CCC(C(=O)Nc4cccc(C)c4C)CC3)n2)cc1`: inactive: 83%.
Regarding `CCc1ccc(NC(=O)CSc2nc3nc(C)cc(C)n3n2)cc1`, the survival was inactive: 77%.
Next, `CCOc1cc(CNC(=O)c2cc(-c3ccccc3)n[nH]2)cc(OCC)c1OCC`: inactive: 98%; `COc1ccc(CCNC(=O)c2ccc3c(c2)CCN3S(=O)(=O)c2ccccc2)cc1`: active: 44%.
Regarding `O=C(CN1C(=O)C2(SCC(=O)N2c2ccc(F)c(F)c2)c2ccccc21)NCCc1ccccc1` (stereo not drawn), the survival was inactive: 78%.
Next, `COc1cc(/C=C/C(=O)C2CC2)cc(OC)c1OC`: inactive: 76%.
Next, `COc1ccc(N2CCN(C(=O)c3cc4c(=O)n(Cc5cccnc5)ccc4nc3C)CC2)cc1`: inactive: 98%; `COc1ccc(CCNC(=O)c2cnn(-c3ccc(F)cc3)c2C2CCN(C(=O)OC(C)(C)C)CC2)cc1OC`: inactive: 87%.
Next, `COc1ccc(NC(=O)c2oc3ccc(S(=O)(=O)N4CCOCC4)cc3c2C)c(OC)c1`: inactive: 129%.
As for `CCOc1cc(C(c2c(C)[nH]n(-c3ccccc3)c2=O)c2c(C)[nH]n(-c3ccccc3)c2=O)ccc1O`, the survival is inactive: 67%.
For `COC(=O)c1cc(NS(=O)(=O)c2ccc3c(c2)OCCO3)ccc1Cl` the value was inactive: 65%; for `CCOc1ccccc1NC(=O)CSc1nc2ccccc2nc1N1CCOCC1`, active: 4%; for `Cc1cc(C)cc(OCC(=O)Nc2nc(-c3ccc(F)cc3)ns2)c1`, inactive: 89%.
For `Cc1ccccc1NC(=O)CSc1c(C(C)C)cnc2c1c(=O)n(C)c(=O)n2C` the value was inactive: 80%.
For `CN(C(=O)CSc1nc2ccc(NC(=O)c3cccc(F)c3)cc2s1)c1ccccc1` the value was inactive: 69%; for `CN(C)N1C(=O)/C(=C/c2cccs2)SC1=Nc1ccccc1`, inactive: 100%.
For the compound `COc1cc(Cl)c(C)cc1NC(=O)CC1Oc2ccccc2NC1=O` (stereo not drawn), the survival was inactive: 60%.
Turning to `COc1ccc(Cn2c(C(=O)O)c(CNCc3ccc(OC)cc3OC)c3ccc(C)cc32)cc1`, the survival is inactive: 83%.
Next, `COc1ccc(NC(=O)CSCc2cc(=O)c3cc(C)ccc3[nH]2)cc1`: inactive: 68%.
Next, `CCC(Sc1nc2nccnc2c(=O)n1Cc1ccccc1Cl)C(=O)NC1CCCCC1` (stereo not drawn): inactive: 99%; `O=S(=O)(c1ccc(C2CCCCC2)cc1)N1CCN(c2cc(Cl)ccc2Cl)CC1`: inactive: 72%; `COc1ccc(-n2c(/C=C/c3cccc4ccccc34)nc3ccccc3c2=O)cc1OC`: inactive: 90%.
In the case of `Cc1ccc2nc(NCc3ccccc3)c3nncn3c2c1`, the survival is inactive: 86%.
For `CCn1cc(C(=O)NCCc2ccc(Cl)cc2)c(=O)c2cc(S(=O)(=O)N(C)C3CCCCC3)ccc21` the value was inactive: 84%.
For the compound `COc1ccc(NC(=O)c2c(NCc3ccc(C)o3)sc3c2CCCCC3)c(OC)c1`, the survival was inactive: 107%.
Next, `COc1ccc(C(=O)Nc2ccc(-c3nc4ncccc4o3)cc2C)cc1Br`: active: 37%.
On to `CCn1c(=O)c2cc(C(=O)Nc3cccc(C(F)(F)F)c3)sc2c2ccccc21`, for which the survival was inactive: 84%.
For `O=C(c1cc2sccc2n1Cc1ccccc1)N1CCN(c2ccccc2F)CC1` the value was inactive: 68%; for `CCNC(=O)CCCN1C(=O)CCn2nc(-c3cccn3C)cc21`, inactive: 70%.
As to `COc1ccc(NC(=O)CC2Oc3ccc(C)cc3NC2=O)cc1Cl` (stereo not drawn), the survival is inactive: 68%.
Next, `Cc1cc(C)cc(-n2ccn(CC(=O)NCCc3ccccc3)c(=O)c2=O)c1`: inactive: 75%.
Next, `COc1cc2c(cc1OC)C(COc1ccc3c(C)cc(=O)oc3c1)N(C(=O)Cc1ccc(F)cc1)CC2` (stereo not drawn): inactive: 80%.
Next, `Cc1cccc(N(CC(=O)NCCc2ccccc2)S(=O)(=O)c2ccccc2)c1C`: active: 56%; `CCOc1ccc(C2C(=O)N(C3CCCCCC3)CC(=O)N2Cc2ccc(C)cc2)cc1OC` (stereo not drawn): inactive: 96%; `COc1ccc(CCNC(=O)c2cc3c(=O)n4cccc(C)c4nc3n2C)cc1`: inactive: 67%.
Turning to `Cc1ccc(-c2csc(-c3c(N)c(C(=O)c4ccc5c(c4)OCO5)n4ccccc34)n2)cc1C`, the survival was inactive: 84%.
Next, `O=C(C[n+]1ccccc1)Nc1ccccc1`: inactive: 79%.
For `COc1ccc2c(C)c(CCC(=O)NCc3cccc(Cl)c3)c(=O)oc2c1` the value was inactive: 73%.
For `Cc1cccc(CSCCNC(=O)C2CCN(S(=O)(=O)Cc3ccccc3)CC2)c1`, the survival is inactive: 72%.
For `CCC(CC)C(=O)Nc1nnc(S(=O)(=O)N(C)c2cc(C)cc(C)c2)s1` the value was inactive: 80%; for `Cc1c(Cl)cccc1NC(=O)c1oc2ccc(S(=O)(=O)N3CCCCCC3)cc2c1C`, inactive: 73%; for `COCCNC(=S)N1CCC(NC(=O)NC23CC4CC(CC(C4)C2)C3)CC1`, inactive: 91%.
With `CCOC(=O)c1cc2c(=O)n3ccccc3nc2n(Cc2ccco2)c1=NC(=O)c1ccc(C(C)(C)C)cc1`, the survival is active: 36%.
Next, `COc1cccc(OC)c1C(=O)Nc1ccc(-c2nc3ncccc3o2)cc1`: inactive: 92%; `O=C(Nc1cccc(F)c1)c1ccc2oc(=O)n(Cc3ccccc3)c2c1`: inactive: 70%.
With `CCOC(=O)c1c(NC(C)=O)c2c3c(sc2n1Cc1c(C)cc(C)cc1C)CCCC3`, the survival was inactive: 89%.
For `COC(=O)c1cc(-c2cc(OC)c(OC)c(OC)c2)no1` the value was inactive: 99%; for `CCOc1ccc(N(CC(=O)NCc2ccc(OC)cc2)S(=O)(=O)c2c(C)[nH]c(=O)[nH]c2=O)cc1`, inactive: 86%; for `COc1cccc(C(=O)N(Cc2cccc(F)c2)C2CCS(=O)(=O)C2)c1` (stereo not drawn), inactive: 74%.
Turning to `COc1ccc(Cn2ccnc2SCC(=O)Nc2ccc3c(c2)OCCO3)cc1`, the survival is inactive: 94%.
Next, `CC(C)(C)c1ccc(OCC(=O)Nc2ccc(C(=O)OC3CCCCC3)cc2)cc1`: inactive: 71%.

(Values after PubChem BioAssay AID463173 (ICCB-Longwood Screening Facility, Harvard Medical School, 2010).)
